Whole data set: some 33,000 sequences, median “E-score (-0.5 to 0.5)” near -0.056, cut for the highest 2% near 0.38. The list shows a part of the results.
biological target: Stb4 (UniProt P50104); test: PBM E-score (8-mer binding enrichment) (E-score (-0.5 to 0.5)); higher = stronger / more preferred TF binding; most listed sequences are background and not binding sites; settings: protein concentration: 200 nM; construct: GST-DNA-binding domain
Outline: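 Yeast transcription factors carrying a GST tag, as full-length proteins or DNA-binding domains, were produced by PURExpress in vitro transcription/translation. About 100-200 nM protein was applied to universal all-10-mer Agilent arrays, double-stranded by primer extension on fresh or once-stripped slides. Bound protein was detected with fluorescent anti-GST, and scans were normalised with masliner. The Universal PBM Analysis Suite gave each ungapped eight-base word, pooled with its reverse complement, an E-score, a modified Wilcoxon-Mann-Whitney statistic.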

Row | Sequence | PBM E-score
1 | AGCAGTAT | -0.12
2 | GGGGAGAC | 0.00994
3 | AACGTATT | -0.0995
4 | ATGTGCCA | -0.134
5 | AATTACAG | 0.0676
6 | CCTATCCC | 0.176
7 | CTTAAAGC | -0.0959
8 | CCACTGGA | -0.0604
9 | ATCCTGAG | -0.0941
10 | AACGTGAT | -0.127
11 | CCGATTGA | 0.214
12 | CCATGGCG | 0.0404
13 | CCAAAATC | -0.027
14 | GCGCCACA | -0.189
15 | AAATTTTA | -0.0853
16 | AGACGCCC | 0.0523
17 | CAAGCCCA | -0.331
18 | CAATCGAA | -0.0153
19 | TAGAGGCA | -0.263
20 | GTTTCTCA | -0.0364
21 | AACTGGTG | -0.136
22 | AAGCTGGA | -0.242
23 | CACCATCA | -0.162
24 | TAAAGGGA | -0.112
25 | AGATACGG | 0.194

Row | Sequence | PBM E-score
26 | AAGTCCGA | 0.313
27 | GATATAGC | 0.144
28 | AAGAGCCA | -0.0876
29 | GACACATC | 0.0258
30 | CCTTTTAA | -0.0164
31 | CTGCGATA | -0.134
32 | ATCCAATG | -0.248
33 | CTCATGGA | -0.192
34 | GGGATGTA | 0.109
35 | AAGAGACC | 0.025
36 | GGGGAAAC | 0.136
37 | GTATTGAC | -0.304
38 | ACGACCGA | 0.0769
39 | GACACTCC | 0.0561
40 | CCAGGAGC | -0.241
41 | TCATGAGA | -0.187
42 | CAAAGGAG | -0.152
43 | CATGACGA | -0.145
44 | ATAAAGAG | -0.322
45 | AAACGTGT | 0.00923
46 | GACGGCCA | -0.121
47 | GCGCCGTA | 0.0577
48 | CACTGATG | -0.218
49 | CAAGCCGC | -0.0428
50 | CCCTGCCC | -0.0678

Row | Sequence | PBM E-score
51 | ATTGCATG | -0.045
52 | GCTTTGTA | -0.0725
53 | ACTTTGAG | -0.161
54 | AGTAAATG | 0.02
55 | AACGATCC | 0.0582
56 | ACGGTACA | -0.022
57 | ATCCCGTC | 0.239
58 | CAGTCCTC | -0.159
59 | AAGGGGGT | -0.328
60 | AATGGTCG | 0.00338
61 | ATCATTCG | 0.0803
62 | TACCAGCA | -0.0785
63 | CACCATAA | -0.121
64 | GGGAGCAC | 0.159
65 | GTATTTTA | 0.0257
66 | ACCTGTGA | -0.135
67 | AGGTGTGG | -0.154
68 | GTCTAGGA | -0.195
69 | AGATGGCG | -0.0367
70 | ATAAGTCA | -0.232
71 | TCTGAGAA | -0.171
72 | ACTTATAA | 0.114
73 | CAAGCCCG | -0.0424
74 | ATCGCGAG | 0.0488
75 | AGTAGCAG | -0.225

Row | Sequence | PBM E-score
76 | GAAGTTAC | 0.094
77 | CCAATACA | -0.16
78 | GATTGTAC | 0.0667
79 | ACCGTGTG | 0.0479
80 | GAGGTCTA | -0.101
81 | CGCAATCC | 0.191
82 | AATTACTC | -0.0609
83 | GTTAGGCA | -0.266
84 | ACTGTCAG | -0.125
85 | ACCCCTCT | -0.0103
86 | CGGCTTTC | 0.234
87 | AGCTAGAG | -0.318
88 | ACTCCTTC | -0.0656
89 | CTAGAGAC | -0.25
90 | CTCGGAAG | 0.48
91 | GACCTCTC | 0.0438
92 | AACTACCG | 0.3
93 | GATAAACC | 0.123
94 | GGGGTTGA | -0.168
95 | ACATGTGC | -0.11
96 | CGGGTCGA | 0.279
97 | CCTACCGA | 0.279
98 | AAAGGGTG | -0.126
99 | ACGGATTG | 0.201
100 | GATGCTGC | -0.0385

Row | Sequence | PBM E-score
101 | CGTTGGCA | -0.0635
102 | AACATCGT | -0.0992
103 | CTGACGCC | -0.148
104 | CTGCCCCC | -0.325
105 | AAAGGTAG | -0.179
106 | ACCACCTA | -0.0883
107 | ATCCCTAG | -0.189
108 | CACTGAAC | -0.116
109 | ACGCGGTC | 0.0801
110 | GCATTGCA | 0.0364
111 | AAGGGCAC | -0.16
112 | CGGAGTCC | 0.193
113 | CGCGGCTA | 0.293
114 | ACGCAACC | 0.0335
115 | ACTCATAA | 0.0144
116 | AGCTCATG | -0.178
117 | CTCTAAAG | -0.141
118 | CCAAATAG | -0.296
119 | CTGAAAAC | -0.0747
120 | CATAAATA | -0.131
121 | CGGTGTAC | 0.0223
122 | GAGGTATC | 0.0468
123 | TCGAACGA | -0.287
124 | ATACTGAC | -0.025
125 | CGCCCCAC | 0.0226

Row | Sequence | PBM E-score
126 | AACGAGCC | 0.024
127 | AGCTTGCC | 0.0179
128 | AGGACTCC | 0.055
129 | GCGATGGA | 0.141
130 | AGTATATA | 0.082
131 | CCACTAGA | -0.152
132 | ACGTGGAG | -0.318
133 | CCGGCTAC | 0.284
134 | AGACTGTC | -0.131
135 | CCCACGAG | -0.217
136 | CTTGCCTC | 0.132
137 | ATGCCCTA | -0.097
138 | CCTCTTCG | -0.0569
139 | ACCGTTAT | -0.0172
140 | ACTCATCA | -0.0422
141 | AATCGATA | -0.122
142 | AGGCACCA | -0.186
143 | CCTCCAAG | -0.248
144 | ATTAACAA | -0.072
145 | GAACACCA | 0.0969
146 | AGAGCCCG | 0.0781
147 | AATAGTTA | -0.157
148 | ACGCCTAC | -0.175
149 | GAATGACC | 0.145
150 | CCTTCCGC | 0.306

Row | Sequence | PBM E-score
151 | ACCCATCC | 0.0282
152 | AAGTGGGG | -0.102
153 | GAGCAATA | 0.0515
154 | AGCACTTC | -0.0296
155 | CATTAGTA | -0.0878
156 | TCGATAGA | -0.149
157 | TCATCAAA | -0.192
158 | TCGTTAAA | -0.00399
159 | CACATCTC | -0.0712
160 | AAGTGGAG | -0.19
161 | AACGGTGA | 0.0142
162 | AATACAAT | 0.025
163 | ATCCGTTC | 0.351
164 | CACGACGA | -0.218
165 | ATGAGATC | -0.124
166 | CAAATTAA | -0.0577
167 | CAAAACGA | -0.19
168 | GAGGATCC | 0.226
169 | GTCTCGTA | -0.115
170 | ACACATGC | -0.0497
171 | AATCATGC | -0.0782
172 | CTCAAGCA | -0.384
173 | TAAACAGA | -0.175
174 | ATCACCTA | -0.308
175 | CATTCTGC | -0.0202

Row | Sequence | PBM E-score
176 | TTCGTCAA | -0.00701
177 | CCCCATGC | -0.129
178 | AAGAACGT | -0.177
179 | CTACTATC | 0.149
180 | ATCAGTAC | -0.0578
181 | CAGACCCG | 0.331
182 | ACGGGCAA | -0.0358
183 | GTCTAAAC | 0.081
184 | CAATTCAG | -0.223
185 | GCGTATGA | -0.054
186 | AATTATAG | -0.0977
187 | AACCAATG | -0.08
188 | AAGCCAAC | -0.186
189 | ATCAACAT | -0.199
190 | AGGTAAGA | -0.0731
191 | CTAGCGAG | -0.227
192 | TGCCTCCA | -0.348
193 | CAGCGTGC | -0.0607
194 | ATTTTCAC | -0.00731
195 | CCAGTCCC | -0.0404
196 | AGGATAAG | -0.0142
197 | CGAATATC | 0.1
198 | CACCTGAG | -0.337
199 | GACCAGGA | -0.103
200 | TGGGTGAA | -0.0129

Row | Sequence | PBM E-score
201 | GCGGCTAA | 0.287
202 | ACAGGAAT | -0.141
203 | CGATCGAC | 0.102
204 | ATTCAATA | -0.108
205 | TAGCATGA | -0.313
206 | TATTCTAA | -0.0561
207 | TTCATCAA | -0.0251
208 | CAGTCTAG | -0.271
209 | AGTTTCCG | 0.437
210 | ATTGGGCA | -0.164
211 | ACGGCCCA | 0.00132
212 | ATCGCTGG | -0.136
213 | CTAGGTCA | -0.298
214 | ACGTAGAA | -0.0733
215 | TGAATCAA | -0.0114
216 | ATCATCTC | 0.00896
217 | AAACACCA | -0.187
218 | GTTCAACA | 0.0397
219 | TAAGGTCA | -0.258
